Reference: the supplement of paper PMC3656093
Where “and” joins values, the source holds several entries; their conditions need not be identical. Equal values may be shown once. ± gives the standard deviation of the averaged measurements. The full ranking holds about 1,900 compounds; the median of “CD40L-induced NF-kB luciferase activity, plate-corrected, relative to DMSO (0) and IKK inhibitor VII (-100) controls” is about 0.032, and the lowest 2% start at about -26. Some of the results follow.

Each compound was assayed on BL2-NFkB-Luc (assay: CD40L-induced NF-kB luciferase activity, plate-corrected, relative to DMSO (0) and IKK inhibitor VII (-100) controls (% normalized activity); higher = more NF-kB reporter activity (less inhibition)). Conditions: 9.4 µM; stimulus: tCD40L 64 ng/ml; 4.5 h.
Procedure: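 BL2 B cells with a stable NF-kB response-element luciferase reporter (BL2-NFkB-Luc), 384-well. Cells were pre-incubated with compound at 9.4 uM for 1 h at 37 C, then stimulated with 64 ng/ml trimerized CD40L for 4.5 h; luciferase was read with Steady-Glo. Signal was normalised per plate in Genedata (median DMSO neutral control = 0, median IKK inhibitor VII at 50 uM = -100) with Assay Median plate-pattern correction; duplicate plates.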

Row | Structure (SMILES) | CD40L-induced NF-kB luciferase activity
1 | COc1ccc(C(=O)Nc2cccc3cccnc23)cc1OC | 19.3 ± 10
2 | CN(C)CCCN1c2ccccc2Sc2ccc(Cl)cc21 | 4.73 and 4.04
3 | CC1(C)CC(CNCCC(c2ccc(F)cc2)c2ccco2)CCO1 (stereo not drawn) | -3.87 ± 7.5
4 | O=c1ccc2ccccc2o1 | 5.33 ± 1.6
5 | O=C(O)C[C@@H](O)C(=O)O | 0.236 ± 3.4
6 | CCc1nc2ccccc2n1Cc1ccc(OC)c(OC)c1 | -4.69 ± 1.2
7 | O=c1[nH]cnc2c1ncn2[C@@H]1O[C@H](CO)[C@@H](O)[C@H]1O | 0.768 ± 3.4
8 | O=C(CN1C(=O)c2ccccc2C1=O)Nc1cccc([N+](=O)[O-])c1 | 3.26 ± 5
9 | O=C1C(=O)N2C(=C1C(=O)N1CCCCCC1)c1ccccc1CC21CCCC1 | -8.65 ± 3.7
10 | C[C@@H]1C[C@H]2[C@@H]3C[C@H](F)C4=CC(=O)C=C[C@]4(C)[C@@]3(F)[C@@H](O)C[C@]2(C)[C@@]1(O)C(=O)COC(=O)C(C)(C)C | -29.5 ± 1.7
11 | COc1ccc(CC(=O)c2c(O)cc(O)cc2O)cc1OC | 8.04 ± 8.6
12 | CC(C)CCC1(CCNC(C)c2cccs2)CCOC(C)(C)C1 (stereo not drawn) | -2.91 ± 3.8
13 | C=CCNC(=O)c1ccc(-c2cccc([N+](=O)[O-])c2)o1 | 42.3 ± 3.3
14 | COc1cc2c(cc1OC)-c1cc(NC3CCCCCC3)nc(=O)n1CC2 | -2.67 ± 1.2
15 | Nc1ccn([C@@H]2O[C@H](CO)[C@@H](O)[C@@H]2O)c(=O)n1 | -30.5 ± 2.4
16 | COc1ccc(NC(=O)CC2C(=O)N(C)C(=S)N2Cc2ccncc2)cc1 (stereo not drawn) | 3.18 ± 0.39
17 | CCOc1ccc(C(=O)/C=C/c2cc(OC)c(OC)c(OC)c2)cc1 | -5.34 ± 4.4
18 | c1ccc(Cn2nnc3cnccc32)cc1 | 3.11 ± 1.1
19 | O=C(CCN1CCC(c2ccccc2)C1)c1ccc2c(c1)OCCO2 (stereo not drawn) | -5.04 ± 8
20 | CCOc1cc2c(cc1OCC)C(c1ccccc1)N(c1ccc(C(=O)O)cc1)C(=O)C2 (stereo not drawn) | 0.452 ± 1.9
21 | CC(C)(C)c1ccc(C(O)CCCN2CCC(C(O)(c3ccccc3)c3ccccc3)CC2)cc1 (stereo not drawn) | 0.124 ± 2
22 | CC(=O)Nc1nc(CCC(C)C)cc2c1c(=O)oc1ccccc12 | 0.806 ± 0.17
23 | CC(COc1ccccc1)NC(C)C(O)c1ccc(O)cc1 (stereo not drawn) | -2.97 ± 7.5
24 | CCc1ccc(CN(C)Cc2nc(Cc3ccccc3)no2)nc1 | -1.15 ± 0.5
25 | CN(C)CCOCCOc1ccc(Cl)cc1Br | -4.58 ± 7

Row | Structure (SMILES) | CD40L-induced NF-kB luciferase activity
26 | O=c1c2ccccc2nc2n1-c1ccccc1CCC2 | -5.01 ± 3.7
27 | Cn1c2c(c(=O)[nH]c1=O)C(c1ccc(O)cc1)C1=C(N2)c2ccccc2C1=O (stereo not drawn) | -7.73 ± 3.6
28 | O=C(O)CCCCCN1C(=O)C(=O)/C(=C(/O)c2ccccc2)C1c1ccccc1 (stereo not drawn) | -0.297 ± 0.14
29 | O=C(Oc1cccccc1=O)c1ccccc1 | 4.85 ± 4.8
30 | Cc1nonc1CN(C)C(=O)c1ccc(OC2CCN(Cc3ccccn3)CC2)cc1 | -2.36 ± 0.37
31 | C=CCNC(=S)N1CCc2c([nH]c3ccccc23)C1C (stereo not drawn) | -1.53 ± 0.54
32 | OC[C@H]1O[C@@H](n2cnc3c(Nc4ccccc4)ncnc32)[C@H](O)[C@@H]1O | 4.14 ± 2
33 | COc1cc2c(cc1OC)CN(C(=O)c1ccc(S(=O)(=O)N(C)c3ccccc3)cc1)CC2 | -1.04 ± 2.9
34 | CCOc1ccccc1C(=O)NCCC(=O)O | -1.43 ± 3.9
35 | Cc1cc(-c2ccccc2)nnc1NCCN1CCOCC1 | 0.543 ± 2.8
36 | OCCN(Cc1nc(-c2ccc3c(c2)OCO3)no1)Cc1cccs1 | 10.4 ± 0.49
37 | Cc1cc(-c2nn(-c3ccccc3F)cc2CN2CCCC(O)C2)c(C)s1 (stereo not drawn) | -8.13 ± 0.3
38 | CSc1ccc2c(c1)N(CCC1CCCCN1C)c1ccccc1S2 (stereo not drawn) | 2.81 ± 5.8
39 | c1ccc(Cn2ncc3c(Nc4ccccc4)ncnc32)cc1 | -4.36 ± 5.5
40 | CCCC(CCC)C(=O)OC1C[C@H]2CC[C@@H](C1)[N+]2(C)C (stereo partly drawn) | 2.53 ± 2.9
41 | CCC[C@@H]1C[C@@H](C(=O)N[C@@H]([C@H]2O[C@H](SC)[C@H](O)[C@@H](O)[C@@H]2O)[C@@H](C)O)N(C)C1 | 3.48 ± 1.2
42 | O=c1nc2sc3ccccc3n2c(=O)n1-c1ccc(Cl)cc1 | 43.9 ± 6.1
43 | O=C(OCCN1CCOCC1)c1cccs1 | -4.77 ± 5.6
44 | Cc1ccc(S(=O)(=O)NC(=O)NN2CCCCCC2)cc1 | 4.36 ± 1
45 | COc1ccc(CCn2c(C)nc3c(c(=O)c4ccccc4n3C)c2=O)cc1 | -5.83 ± 7.7
46 | COC1(C)CC2C(CC1OC(=O)c1cc([N+](=O)[O-])cc([N+](=O)[O-])c1)C2(C)C (stereo not drawn) | -2.15 ± 1.7
47 | C[C@]12CC[C@@H]3c4ccc(OS(=O)(=O)O)cc4CC[C@H]3[C@@H]1CCC2=O | -3.9 ± 0.34
48 | COc1ccccc1NC(=O)C12CCC(C)(C(=O)C1)C2(C)C (stereo not drawn) | -2.22 ± 0.13
49 | OC(CCCN1CCCCC1)(c1ccccc1)c1ccccc1 | 2.58 ± 4.7
50 | CCN(CC)CCOC(=O)C(c1ccccc1)c1ccccc1 | 0.144 ± 0.79

Row | Structure (SMILES) | CD40L-induced NF-kB luciferase activity
51 | Cc1ccc(O)c(CCc2ccccc2)n1 | 21.1 ± 3.1
52 | CCN(CC)CCNc1ccc(CO)c2sc3ccccc3c(=O)c12 | 61.35 ± 0.042
53 | Cn1nc(-c2ccccn2)nc2c(=O)n(C)c(=O)nc1-2 | -19.1 ± 0.82
54 | CCCCC[C@H](O)/C=C/[C@@H]1[C@@H](C/C=C\CCCC(=O)OC)[C@@H](O)C[C@H]1O | -2.47 ± 3.2
55 | Fc1cc(F)cc(NC(=S)NCCCN2CCOCC2)c1 | 2.2 ± 2.8
56 | Cc1ccsc1/C=C/C1=NCCCN1C | -3.66 ± 2.7
57 | COc1ccc(C=O)c(OC)c1 | 3.69 ± 3
58 | COc1ccc(/C=C2\CCn3c2nc2cc(C(=O)O)ccc2c3=O)cc1OC | -3.92 ± 7.8
59 | CCOc1ccc(CCn2c(-c3ccco3)nc3ccccc3c2=O)cc1OCC | -12.2 ± 2.2
60 | CC(C)CN1CCN(Cc2ccc3ncccc3c2)CC1CCO (stereo not drawn) | 2.01 ± 3.1
61 | O=C(NCCN1CCN(c2ccccc2)CC1)c1cccc(Br)c1 | 1.12 ± 0.63
62 | Cc1cccc(NC(=O)c2cc3ccccc3o2)c1 | 59.9 ± 28
63 | O=C(NN=Cc1ccc([N+](=O)[O-])o1)c1ccc(O)cc1 | -1.71 ± 0.97
64 | CCOC(=O)c1cnc2ccc(C(=O)OC)cc2c1Nc1ccc2c(c1)OCCO2 | -1.39 ± 2.7
65 | O=c1cc(Cn2ccnc2)c2cc3c(cc2o1)CCC3 | 3.94 ± 2.4
66 | CC(=O)Nc1ccccc1O | 6.2 ± 2.2
67 | COc1ccc(C(=O)NCc2cccnc2)cc1 | -2.51 ± 0.59
68 | S=C(c1ccc2c(c1)OCO2)N1CCCCC1 | -1.53 ± 2.3
69 | COc1cc2c3c(c1)C(C)CC(C)(C)N3C(=O)C2=O (stereo not drawn) | 0.117 ± 1.4
70 | CC(=O)Oc1ccc2occ(C=Nc3cc(=O)[nH]c(=S)[nH]3)c(=O)c2c1 | 1.96 ± 2.2
71 | COc1ccc(O)c(N)c1 | -3.14 ± 0.64
72 | C=CCn1c(N2CCCCCC2)nc2c1c(=O)n(C)c(=O)n2C | -8.807 ± 0.026
73 | S=C(NCc1ccccc1)NCc1cccc(CNC(=S)NCc2ccccc2)c1 | 2.76 ± 7.2
